Whole data set: some 1,800 sequences, median “median log2 fold change of GCK-ALFA target abundance (FLAG IP / Myc IP barcode read proportion)” near 0.14, cut for the lowest 2% near -0.84. The list shows a part of the results.
T1: TRAF2, Q12933
T1 chain: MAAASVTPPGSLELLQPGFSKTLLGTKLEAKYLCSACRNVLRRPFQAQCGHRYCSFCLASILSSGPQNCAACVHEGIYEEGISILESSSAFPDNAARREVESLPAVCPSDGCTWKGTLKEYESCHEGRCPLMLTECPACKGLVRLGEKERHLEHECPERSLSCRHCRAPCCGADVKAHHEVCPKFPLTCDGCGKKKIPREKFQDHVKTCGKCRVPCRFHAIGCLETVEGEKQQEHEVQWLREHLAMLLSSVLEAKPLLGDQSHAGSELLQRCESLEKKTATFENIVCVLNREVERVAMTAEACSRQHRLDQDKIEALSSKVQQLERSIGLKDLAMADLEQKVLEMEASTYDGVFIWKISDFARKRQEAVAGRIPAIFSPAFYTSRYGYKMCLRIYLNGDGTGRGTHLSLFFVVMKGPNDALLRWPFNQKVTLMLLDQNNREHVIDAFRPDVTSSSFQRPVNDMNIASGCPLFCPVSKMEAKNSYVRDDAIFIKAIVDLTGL

B1: traf2_out_17_60_1761 (protein)
chain: GPEEEKEELAKRAEEKIKEARELVEEVREKLAAGTLTADEAMDYLVELSEKRRELEALREELKAKGPEFEPLVERLEETIEEIRRTMNEVGKKLLELLAA
B2: traf2_out_20_3_2226 (protein)
chain: EELEKELEKLLEEALKQLKEIAKVADPETKKVVEKMIKKLEEAKELDPVDRLVVLSEVRRQLLLLAQKAKAAGNKELAAKLEKAAELLQRAMQVEYKIIE
B3: traf2_out_5_63_2355 (protein)
chain: SEREELTALAKEADKLALELLEAAKKGDEEEVEKLLKEAAEDEELARTVLGILKGYAKYYELLGDKPEEAKIAKELAKRLEELMKEKKEEEARRKAEEEA
B4: traf2_out_13_95_1168 (protein)
chain: SEEKTEKERKIASEAFDRREAIARDFAARVRALIDDPEAAALMDEVVRRMNRFTLEAAAARLIAAHPEHAAEIRALRDEALARMREIDRETTKKLNEIEE
B5: traf2_out_20_3_2184 (protein)
chain: SELEKQLEEELEKALALLKEAAKLADKETAAKLDALAKRLKASRELSPEDQLVELSEIRREVLRLAEEAKKEGKEELAKVLEKAAEALNRAMNLVYKIIE
B6: traf2_out_13_95_1135 (protein)
chain: SKETAEKIMEVADEMLDKVTAVLEKLKAKAEKAGKLVEEIEEVLHLARYQSVNLAIHKLRELSKEHPEFKEELDAAIEEIEAIRREAGKKVAEILKKAKE
B7: traf2_out_13_95_1132 (protein)
chain: SAETAKKIMEIADKMLDEILAILEELLKKAEAAGVGVEEIQKAIHLAEHHSVNEAIHLLRELAKKHPEFKAELEAAIAKIEAIREKAGREVAKILKEAAE
B8: traf2_out_6_166_2461 (protein)
chain: SEELRKRIKEIIEELSKYPVDVILEAFEEVAKEVDPESARIARQLASAVRQAQKLGLDVAVALSATVDGLIALGVPEEKLLELLEKILKKAKEIAAEREA
B9: traf2_out_9_17_2609 (protein)
chain: SAAEERLRERLLEAIEEVLKELVEKGYITEEQAEEILKKVRELIERGASTDEIIAEFLGMVASILLTKSNLSLPEANKIVGEAYRKLRAALAAIEAELAA
B10: traf2_out_11_169_873 (protein)
chain: EEAEKNRKINDKALELNDKAKEELKEFALKLAKEKGLDVEEIKKIFEKNKNKSLSYVAAELIRYFKEKGEEEAAEEILKKYEELKEKINKEMSKFLKELE
B11: traf2_out_17_178_1733 (protein)
chain: SREEILKKISEYADEMLDVTKKAVDELKAIAEKEGILTPELKARLDEVASTSNLYAFKEVAEELIKLSSNKEEVEKLLKETVKKLTELRKKIQEAVDELE
B12: traf2_out_17_178_1705 (protein)
chain: SKEEARKKISEATDKMIDLAQEAAERLLEIAEREGSLSPEELAELRRARRLGSARTTLALMRRAIPRSRSAEEVRRLVEEFEKEYRELSKIIAEELKKYE
B13: traf2_out_8_15_2551 (protein)
chain: SIEEAALKDIAKLESLSDGDKESLINTLLGMAKGELRLAKIYAEEGRKEEALNTLKAAKIYADEALKLAKEINSPNLEEIKKEVEKIHKEIEELKKKIKA
B14: traf2_out_20_3_2146 (protein)
chain: EELEKKLEEEKERALKLLEEAAKLADKETAAKLKALAKRLKESEKLSYSDQLVVVSEVRREVLLLAQEAEAAGKEELAKLLEEAADELNRAMNLLYKIIE
B15: traf2_out_20_38_2030 (protein)
chain: SAEEEEERRLEELIEVANEAYDKYEEEFKKLQAEGKSVEEMAELTKEKVRELLEKAGLEEEAKILIEDIDRALSSPNAVRLLIRILARAEALVYQKKINK
B16: traf2_out_11_155_759 (protein)
chain: STLRAKANAINDAAMAIADEIDAFIDEVIAAVEKEDPAVAAEIRAALAAHRDASARSRALIVADVLKAAGLDDRAAAVEKKLEEAQKRLNEEVKKIEEAA
B17: traf2_out_1_27_986 (protein)
chain: SEAEFTALVKEASRKIAAASPEEAIEIARETLRTLHELGNPDIGVAAVTLVTSVKTREDAEALIEAIVETLRELGVPEEEIERVRRQMETAVRLLFEALA
B18: traf2_out_6_169_2501 (protein)
chain: AEREELERELARHRARAEELFNIAKTIYKQAEENDDKSKLPTRLEALETIRNALTRQYDLAIAAAEALGDEELAAELREERERRLKEIDEYIKKLKEKMK
B19: traf2_out_11_155_699 (protein)
chain: EKKRELANELVDKMMEIEDEAKARLDAIAAEAAAAHPEHAAEIEAARAAAARFSATTYAGILAALFRRLGLDEYAARVEALREEAQKRKNEVYKEIEAKM
B20: traf2_out_17_162_1543 (protein)
chain: AALEARLAALEARLERLEALRRELEALVPKLPELSKEELTDLLVEASEARREALRLAEEIAALKDEIGEERATALRERALEVAEELQRIANLIYKELEKK
B21: traf2_out_17_178_1748 (protein)
chain: NEEELKKIINEKNNEIADIAEKLAEEILKLAKEDPSISPETLALIEEARRNGSHNTAVALFLEASKNEETKKKVEELHKKASEEMNKLAKEREEAIEKYK
B22: traf2_out_17_162_1524 (protein)
chain: SATEARAAALEAELAALEKELAALKAQLPKLPEMSKEELSDLLVKASEARRRALALAERIRELAAELGEERAQALRDRAEAIAAEFQKIAQAAYKEYEKK
B23: traf2_out_13_95_1120 (protein)
chain: SKEVAEKIMEIADEMEDKRLAILEELLKIAKEKGIAEEEIQAIIDFAKHGTINEVIHRLKELAKKYPELKEEFDKAIAELEEIKREAGRKVAEILKEEKE
B24: traf2_out_11_155_748 (protein)
chain: EERRKLLQEMNDKITELFDKAREEALKIAEEAAKKHPEHAEEIKKKIEETKGFSYRSFILSMIELFEELGLEEEAKKLKELLEKTQKEANKIVQETEKKL
B25: traf2_out_1_27_997 (protein)
chain: SDEELNERLRELDKKIASADEEEALELVREGMRYFIEIGLGDAEIFAIIAVSSVSDEELAERILEVIREVMKEEGVSEEDIERIIKRARNNYERLKKALS
B26: traf2_out_20_3_2150 (protein)
chain: EELKKELEKELKKAEEILKEAAKLADEETAARLKELLERLKASKELSYSDQLVVVSEIRREVLLLAQEAKAAGKEELAKLLEKAAEELNKAANLLMKIIE
B27: traf2_out_18_167_1876 (protein)
chain: SEELKKKLEEASDELVELSTIRRWLRLALEALKESREKALAVLEAALAELPDSEVLREALEVARTKSDEELRRFLEEKIEELQKKANEKYKEYEELRKKL
B28: traf2_out_20_3_2099 (protein)
chain: KELEEEYEKELEKAIKLLEEAAKLADPETAKELEELKKRVEESKELDYTDRLVELSEVKREVLLLAQKAKAEGKEELAKVLEEAADALNKAMNLLYKIIE
B29: traf2_out_15_180_1315 (protein)
chain: MTEEELKKRIELASEVADKIDDKLKELIAANPELTEEEKQALRTAARSLRTLLLNGEEAEAEEALAQAKARLSPKAAAVLEELAAFIRKEVAAMKEKLAA

Biological target: T1, TRAF2, Q12933
Experiment: median log2 fold change of GCK-ALFA target abundance (FLAG IP / Myc IP barcode read proportion) (log2 ratio); each designed protein is fused to an ALFA-tag nanobody in HEK293 cells to bring the named protein to FLAG-tagged glucokinase (GCK); Myc marks an untargeted standard; higher = target protein stabilised (more abundant)
Details: target protein: 3xFLAG-MCP-GCK-ALFA reporter; HEK293 landing pad (RPLP)
Summary of the method: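 An ALFA-nanobody-fused binder library was recombined into HEK293 landing-pad cells and induced with 2 μg mL^−1 doxycycline. Cells were transfected with a plasmid expressing a FLAG-tagged target and a Myc-tagged standard. After 48 h, lysates underwent anti-FLAG and anti-Myc immunoprecipitation, and circular RNA barcodes were reverse transcribed, amplified and sequenced. Target abundance is the per-binder median log2 ratio of FLAG to Myc barcode read proportions. Barcodes needed ≥10^−7 proportion in both replicates, binders ≥3 barcodes per replicate, and a 10^−6 pseudocount was added; the two replicates were pooled.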

Binder	median log2 fold change
B1	-0.0492
B2	0.133
B3	0.382
B4	0.228
B5	0.0556
B6	-0.36
B7	-0.315
B8	0.127
B9	0.0709
B10	-0.161
B11	0.195
B12	-0.521
B13	0.246
B14	0.34
B15	0.153
B16	0.225
B17	0.297
B18	0.00609
B19	-0.13
B20	0.311
B21	0.486
B22	0.0763
B23	0.107
B24	0.302
B25	-0.0435
B26	0.0615
B27	-0.674
B28	0.0153
B29	0.224
